Four molecules from publication PMC2808332 can be followed below.

Results are given in words; binding and its absence hold for the method and conditions named. For part of these data: In cells and extracts the contact can be indirect. Some binding calls cover weakened binding; strength is not graded here. Sequences can lack the tags named with a protein.

One assay has as its target GST-NEMO (human) (UniProt Q9Y6K9). The experiment in a line: pull-down; GST or GST-NEMO immobilised; lysates of transiently transfected HEK-293T cells applied; washing, SDS-PAGE, immunoblot; only the target purified. In general terms: Immunoblotting shows a protein as a band on a membrane.
The target of assay [1] is Xpress-tagged NEMO (human) (UniProt Q9Y6K9). The experiment in a line: co-IP; Xpress-tagged NEMO and partner co-expressed in HEK-293T; anti-Xpress, protein A/G agarose; binding and washing with 0.5% NP-40 (20 mM Tris-HCl pH 7.5, 137 mM NaCl, 0.5 mM DTT, 10% glycerol, 2 mM EDTA), 4°C.
Assay [2] has as its target NEMO, mammalian two-hybrid fusion (human) (UniProt Q9Y6K9). Description: two-hybrid; mammalian two-hybrid, CheckMate/Flexi system (Promega) in HEK-293T; pFN10A (activation domain) and pFN11A (binding domain); firefly/Renilla luciferase; partner/NEMO compared with partner/empty vector.

B1: CALB1 (calbindin D28K), expressed in HEK-293T (protein, UniProt P05937 1-261)
chain: MAESHLQSSLITASQFFEIWLHFDADGSGYLEGKELQNLIQELQQARKKAGLELSPEMKTFVDQYGQRDDGKIGIVELAHVLPTEENFLLLFRCQQLKSCEEFMKTWRKYDTDHSGFIETEELKNFLKDLLEKANKTVDDTKLAEYTDLMLKLFDSNNDGKLELTEMARLLPVQENFLLKFQGIKMCGKEFNKAFELYDQDGNGYIDENELDALLKDLCEKNKQDLDINNITTYKKNIMALSDGGKLYRTDLALILCAGDN
Turning to B1, the binding entry (with GST-NEMO (human); in assay [1]) was “binds” throughout.

B2: CALB1, mammalian two-hybrid fusion (protein, UniProt P05937 1-261)
chain: B1 chain
Turning to B2, in assay [2], the binding entry was “binds”.

B3: SENP2-FLAG (protein, UniProt Q9HC62 1-589)
chain: MYRWLVRILGTIFRFCDRSVPPARALLKRRRSDSTLFSTVDTDEIPAKRPRLDCFIHQVKNSLYNAASLFGFPFQLTTKPMVTSACNGTRNVAPSGEVFSNSSSCELTGSGSWNNMLKLGNKSPNGISDYPKIRVTVTRDQPRRVLPSFGFTLNSEGCNRRPGGRRHSKGNPESSLMWKPQEQAVTEMISEESGKGLRRPHCTVEEGVQKEEREKYRKLLERLKESGHGNSVCPVTSNYHSSQRSQMDTLKTKGWGEEQNHGVKTTQFVPKQYRLVETRGPLCSLRSEKRCSKGKITDTETMVGIRFENESRRGYQLEPDLSEEVSARLRLGSGSNGLLRRKVSIIETKEKNCSGKERDRRTDDLLELTEDMEKEISNALGHGPQDEILSSAFKLRITRGDIQTLKNYHWLNDEVINFYMNLLVERNKKQGYPALHVFSTFFYPKLKSGGYQAVKRWTKGVNLFEQEIILVPIHRKVHWSLVVIDLRKKCLKYLDSMGQKGHRICEILLQYLQDESKTKRNSDLNLLEWTHHSMKPHEIPQQLNGSDCGMFTCKYADYISRDKPITFTQHQMPLFRKKMVWEILHQQLL
Consider B3, for which the binding entry (with GST-NEMO (human); in assay [1]) was “binds” in each case.

B4: SENP2, mammalian two-hybrid fusion (protein, UniProt Q9HC62 1-589)
chain: B3 chain
With B4, the binding result in assay [2] is recorded as “binds”.
